# This is one part of the list.
# B1: F17fG (Escherichia coli), Q9RH91 (protein)
# chain: MTNFYKVFLAVFILVCCNISHAAVSFIGSTENDVGPSQGSYSSTHAMDNLPFVYNTGHNIGYQNANVWRISGGFCVGLDGKVDLPVVGSLDGQSIYGLTEEVGLLIWMGDTNYSRGTAMSGNSWENVFSGWCVGNYVSTQGLSVHVRPVILKRNSSAQYSVQKTSIGSIRMRPYNGSSAGSVQTTVNFSLNPFTLNDTVTSCRLLTPSAVNVSLAAISAGQLPSSGDEVVAGTTSLKLQCDAGVTVWATLTDATTPSNRSDILTLTGASTATGVGLRIYKNTDSTPLKFGPDSPVKGNENQWQLSTGTETSPSVRLYVKYVNTGEGINPGTVNGISTFTFSYQ
# Key:
# Assay in all cases: glycan array binding signal (z-score within array); higher = stronger binding
# Settings in all cases: glycan notation: IUPAC condensed, linker removed
# Gal(a1-4)Gal(b1-4)Glc = target: Gal(a1-4)Gal(b1-4)Glc
# Summary of the method: (§1)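 The binding signal is a Z-score computed within each array. Data were drawn from 3228 arrays in the Consortium for Functional Glycomics database, restricted to those with a known protein sequence. Scores were averaged over arrays of the same protein sequence at different concentrations or buffers, and over linkers, and negative values can be taken as non-binding.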
# Gal(a1-4)Gal(b1-4)GlcNAc = target: Gal(a1-4)Gal(b1-4)GlcNAc
# Summary of the method: as §1
# Gal(a1-4)GlcNAc = target: Gal(a1-4)GlcNAc
# Summary of the method: as §1
# Gal(a1-6)Glc = target: Gal(a1-6)Glc
# Summary of the method: as §1
# Gal(b1-2)Gal = target: Gal(b1-2)Gal
# Summary of the method: as §1
# Gal(b1-3)Gal = target: Gal(b1-3)Gal
# Summary of the method: as §1
# Gal(b1-3)GalNAc = target: Gal(b1-3)GalNAc
# Summary of the method: as §1
# [1] = target: Gal(b1-3)GalNAc(b1-3)Gal(a1-4)Gal(b1-4)Glc
# Summary of the method: as §1
# [2] = target: Gal(b1-3)GalNAc(b1-4)Gal(b1-4)Glc
# Summary of the method: as §1
# [3] = target: Gal(b1-3)GalNAc(b1-4)[Neu5Ac(a2-3)]Gal(b1-4)Glc
# Summary of the method: as §1
# Gal(b1-3)GlcNAc = target: Gal(b1-3)GlcNAc
# Summary of the method: as §1
# [4] = target: Gal(b1-3)GlcNAc(b1-3)Gal(b1-4)Glc
# Summary of the method: as §1
# [5] = target: Gal(b1-3)GlcNAc(b1-3)Gal(b1-4)GlcNAc
# Summary of the method: as §1
# [6] = target: Gal(b1-3)[Fuc(a1-4)]GlcNAc
# Summary of the method: as §1
# [7] = target: Gal(b1-3)[Fuc(a1-4)]GlcNAc(b1-3)Gal(b1-4)GlcNAc
# Summary of the method: as §1
# [8] = target: Gal(b1-3)[Fuc(a1-4)]GlcNAc(b1-3)Gal(b1-4)[Fuc(a1-3)]GlcNAc
# Summary of the method: as §1
# [9] = target: Gal(b1-3)[GlcNAc(b1-6)]GalNAc
# Summary of the method: as §1
# [10] = target: Gal(b1-3)[Neu5Ac(a2-6)]GalNAc
# Summary of the method: as §1
# [11] = target: Gal(b1-3)[Neu5Ac(a2-6)]GlcNAc(b1-6)Gal(b1-4)Glc
# Summary of the method: as §1
# [12] = target: Gal(b1-3)[Neu5Ac(b2-6)]GalNAc
# Summary of the method: as §1
# [13] = target: Gal(b1-4)GalNAc(a1-3)[Fuc(a1-2)]Gal(b1-4)GlcNAc
# Summary of the method: as §1
# [14] = target: Gal(b1-4)GalNAc(b1-3)[Fuc(a1-2)]Gal(b1-4)GlcNAc
# Summary of the method: as §1
# Gal(b1-4)Glc = target: Gal(b1-4)Glc
# Summary of the method: as §1
# Gal(b1-4)Glc6S = target: Gal(b1-4)Glc6S
# Summary of the method: as §1
# Gal(b1-4)GlcNAc = target: Gal(b1-4)GlcNAc
# Summary of the method: as §1
# [15] = target: Gal(b1-4)GlcNAc(b1-2)Man(a1-3)[Gal(b1-4)GlcNAc(b1-2)Man(a1-6)]Man(b1-4)GlcNAc(b1-4)GlcNAc
# Summary of the method: as §1
# [16] = target: Gal(b1-4)GlcNAc(b1-3)Gal(b1-4)Glc
# Summary of the method: as §1
# [17] = target: Gal(b1-4)GlcNAc(b1-3)Gal(b1-4)GlcNAc
# Summary of the method: as §1
# [18] = target: Gal(b1-4)GlcNAc(b1-3)Gal(b1-4)GlcNAc(b1-3)Gal(b1-4)GlcNAc
# Summary of the method: as §1
# [19] = target: Gal(b1-4)GlcNAc(b1-3)Gal(b1-4)[Fuc(a1-3)]GlcNAc(b1-3)Gal(b1-4)[Fuc(a1-3)]GlcNAc
# Summary of the method: as §1
# [20] = target: Gal(b1-4)GlcNAc(b1-3)GalNAc
# Summary of the method: as §1
# [21] = target: Gal(b1-4)GlcNAc(b1-3)[Gal(b1-4)GlcNAc(b1-6)]GalNAc
# Summary of the method: as §1
# [22] = target: Gal(b1-4)GlcNAc(b1-6)Gal(b1-4)GlcNAc(b1-6)GalNAc
# Summary of the method: as §1
# [23] = target: Gal(b1-4)GlcNAc(b1-6)GalNAc
# Summary of the method: as §1
# [24] = target: Gal(b1-4)GlcNAc(b1-6)[Gal(b1-3)]GalNAc
# Summary of the method: as §1
# Gal3S(b1-3)GalNAc = target: Gal3S(b1-3)GalNAc
# Summary of the method: as §1
# Gal3S(b1-3)GlcNAc = target: Gal3S(b1-3)GlcNAc
# Summary of the method: as §1
# [25] = target: Gal3S(b1-3)[Fuc(a1-4)]GlcNAc
# Summary of the method: as §1
# Gal3S(b1-4)Glc = target: Gal3S(b1-4)Glc
# Summary of the method: as §1
# Gal3S(b1-4)Glc6S = target: Gal3S(b1-4)Glc6S
# Summary of the method: as §1
# Gal3S(b1-4)GlcNAc = target: Gal3S(b1-4)GlcNAc
# Summary of the method: as §1
# Gal3S(b1-4)GlcNAc6S = target: Gal3S(b1-4)GlcNAc6S
# Summary of the method: as §1
# Gal3S6S(b1-4)GlcNAc = target: Gal3S6S(b1-4)GlcNAc
# Summary of the method: as §1
# Gal3S6S(b1-4)GlcNAc6S = target: Gal3S6S(b1-4)GlcNAc6S
# Summary of the method: as §1
# Gal4S(b1-4)GlcNAc = target: Gal4S(b1-4)GlcNAc
# Summary of the method: as §1
binder,measurement,setting,value
B1,glycan array binding signal (z-score),Gal(a1-4)Gal(b1-4)Glc,-0.234
same,glycan array binding signal (z-score),Gal(a1-4)Gal(b1-4)GlcNAc,-0.382
same,glycan array binding signal (z-score),Gal(a1-4)GlcNAc,-0.3
same,glycan array binding signal (z-score),Gal(a1-6)Glc,-0.282
same,glycan array binding signal (z-score),Gal(b1-2)Gal,-0.248
same,glycan array binding signal (z-score),Gal(b1-3)Gal,-0.286
same,glycan array binding signal (z-score),Gal(b1-3)GalNAc,-0.283
same,glycan array binding signal (z-score),[1],-0.343
same,glycan array binding signal (z-score),[2],-0.378
same,glycan array binding signal (z-score),[3],-0.355
same,glycan array binding signal (z-score),Gal(b1-3)GlcNAc,-0.141
same,glycan array binding signal (z-score),[4],-0.272
same,glycan array binding signal (z-score),[5],-0.3
same,glycan array binding signal (z-score),[6],-0.382
same,glycan array binding signal (z-score),[7],-0.213
same,glycan array binding signal (z-score),[8],-0.353
same,glycan array binding signal (z-score),[9],0.211
same,glycan array binding signal (z-score),[10],-0.273
same,glycan array binding signal (z-score),[11],-0.2
same,glycan array binding signal (z-score),[12],-0.291
same,glycan array binding signal (z-score),[13],-0.363
same,glycan array binding signal (z-score),[14],-0.375
same,glycan array binding signal (z-score),Gal(b1-4)Glc,-0.347
same,glycan array binding signal (z-score),Gal(b1-4)Glc6S,-0.248
same,glycan array binding signal (z-score),Gal(b1-4)GlcNAc,-0.266
same,glycan array binding signal (z-score),[15],-0.371
same,glycan array binding signal (z-score),[16],-0.313
same,glycan array binding signal (z-score),[17],-0.365
same,glycan array binding signal (z-score),[18],-0.371
same,glycan array binding signal (z-score),[19],-0.157
same,glycan array binding signal (z-score),[20],-0.357
same,glycan array binding signal (z-score),[21],-0.37
same,glycan array binding signal (z-score),[22],-0.352
same,glycan array binding signal (z-score),[23],-0.328
same,glycan array binding signal (z-score),[24],-0.363
same,glycan array binding signal (z-score),Gal3S(b1-3)GalNAc,-0.179
same,glycan array binding signal (z-score),Gal3S(b1-3)GlcNAc,-0.258
same,glycan array binding signal (z-score),[25],-0.253
same,glycan array binding signal (z-score),Gal3S(b1-4)Glc,-0.106
same,glycan array binding signal (z-score),Gal3S(b1-4)Glc6S,-0.146
same,glycan array binding signal (z-score),Gal3S(b1-4)GlcNAc,-0.139
same,glycan array binding signal (z-score),Gal3S(b1-4)GlcNAc6S,-0.038
same,glycan array binding signal (z-score),Gal3S6S(b1-4)GlcNAc,0.156
same,glycan array binding signal (z-score),Gal3S6S(b1-4)GlcNAc6S,0.243
same,glycan array binding signal (z-score),Gal4S(b1-4)GlcNAc,-0.032

# From the supplement of paper PMC8728848
